Assay results reported in the DeepSol protein solubility set.

Assay: soluble on expression in E. coli; label from the status in PepcDB or PDB records

MNSAAGFSHLDRRERVLKLGESFEKQPRCAFHTVRYDFKPASIDTSSEGYLEVGEGEQVTITLPNIEGSTPPVTVFKGSKKPYLKECILIINHDTGECRLEKLSSNITVKKTRVEGSSKIQYRKEQQQQQMWNSARTPNLVKHSPSEDKMSPASPIDDIERELKAEASLMDQMSSCDSSSDSKSSSSSSSEDSSSDSEDEDCKSSTSDTGNCVSGHPTMTQYRIPDIDASHNRFRDNSGLLMNTLRNDLQLSESGSDSDD
soluble on expression in E. coli: soluble

MRGSGSMRGSGSMRPSMSGLHLVKRGREHKKLDLHRDFTVASPAEFVTRFGGDRVIEKVLIANNGIAAVKCMRSIRRWAYEMFRNERAIRFVVMVTPEDLKANAEYIKMADHYVPVPGGPNNNNYANVELIVDIAKRIPVQAVWAGWGHASENPKLPELLCKNGVAFLGPPSEAMWALGDKIASTVVAQTLQVPTLPWSGSGLTVEWTEDDLQQGKRISVPEDVYDKGCVKDVDEGLEAAERIGFPLMIKASEGGGGKGIRKAESAEDFPILFRQVQSEIPGSPIFLMKLAQHARHLEVQILADQYGNAVSLFGRDCSIQRRHQKIVEEAPATIAPLAIFEFMEQCAIRLAKTVGYVSAGTVEYLYSQDGSFHFLELNPRLQVEHPCTEMIADVNLPAAQLQIAMGVPLHRLKDIRLLYGESPWGVTPISFETPSNPPLARGHVIAARITSENPDEGFKPSSGTVQELNFRSSKNVWGYFSVAATGGLHEFADSQFGHCFSWGENREEAISNMVVALKELSIRGDFRTTVEYLINLLETESFQNNDIDTGWLDYLIAEKVQAEKPDIMLGVLEHHHHHHLEHHHHHH
soluble on expression in E. coli: soluble

SVQATREDKFSFGLWTVGWQARDAFGDATRTALDPVEAVHKLAEIGAYGITFHDDDLVPFGSDAQTRDGIIAGFKKALDETGLIVPMVTTNLFTHPVFKDGGFTSNDRSVRRYAIRKVLRQMDLGAELGAKTLVLWGGREGAEYDSAKDVSAALDRYREALNLLAQYSEDRGYGLRFAIEPKPNEPRGDILLPTAGHAIAFVQELERPELFGINPETGNEQMSNLNFTQGIAQALWHKKLFHIDLNGQHGPKFDQDLVFGHGDLLNAFSLVDLLENGPDGAPAYDGPRHFDYKPSRTEDYDGVWESAKANIRMYLLLKERAKAFRADPEVQEALAASKVAELKTPTLNPGEGYAELLADRSAFEDYDADAVGAKGFGFVKLNQLAIEHLLGAR
soluble on expression in E. coli: soluble

GEFKGLNVCQPTRFISRHNIEGIFTFVDHRCVATVGYQPQELLGKNIVEFCHPEDQQLLRDSFQQVVKLKGQVLSVMFRFRSKNQEWLWMRTSSFTFQNPYSDEIEYIICTNTNVKNSSQE
soluble on expression in E. coli: soluble

MVIVLPRKYGKASRKCSRCGDHSALVRRYGLMLCRQCFRELAPKIGFKKYN
soluble on expression in E. coli: not soluble

HMKERPPPVPNPDYNSLKKGSLVKNLHMTEEVIVIAKWDYTAQQDQELDIKKNERLWLLDDSKTWWRVRNAANRTGYVPSNYVERK
soluble on expression in E. coli: soluble

DVVMTQTPSSLAMSVGQKVTMSCKSSQSLLNISNQKNYLAWYQQKPGQSPKLLVYFASTRESGVPDRFIGSGSGTDFTLTISSVQAEDQADYFCQQHYRAPRTFGGGTKLEIK
soluble on expression in E. coli: soluble

MDPIREGEVAHEGDSVYTLNDFTKLEKIGEGTYGVVYKGKNRRTNAMVAMKKIRLESEDEGVPSTAVREISLLKELQHPNVVGLEAVIMQENRLFLIFEFLSFDLKRYMDQLGKDEYLPLETLKSYTFQILQAMCFCHQRRVIHRDLKPQNLLVDNNGAIKLADFGLARAIGIPIRVYTHEVVTLWYRAPEILMGAQRYSMGVDMWSIGCIFAEMATKKPLFQGDSEIDELFRIFRVLGTPTELEWNGVESLPDYKATFPKWRENFLRDKFYDKKTGKHLLDDTAFSLLEGLLIYDPSLRLNAKKALVHPYFDNMDTSKLPAGNYRGELELF
soluble on expression in E. coli: not soluble

MAPTKKVPQVPETVLKRRKQRADARTKAAQHKVTVAAKNKEKKTQYFKRAEKYVQEYRNAQKEGLRLKREAEAKGDFYVPAEHKVAFVVRIRGINQLHPKPRKALQILRLRQINNGVFVKLNKATLPLLRIIEPYVAWGYPNNKTIHDLLYKRGYAKVDGNRVPITDNTIVEQSLGKFNIICLEDLAHEIATVGPHFKEATNFLWPFKLNNPTGGWTKKTNHFVEGGDFGNREDQINNLLRKMV
soluble on expression in E. coli: not soluble
